# Data from the supplement of paper PMC8728848.
# The list shows a part of the results.
# B1: PX9961H-bth-557-24-557 (Bacteroides thetaiotaomicron) (protein)
# chain: EETRTEVEKKNYMNNAEEAKDVLLGVYRTNTLDAMYGYYLSILFNLGTDISQVEGSGNENFRIIPTNSFPTTQSEVQQTWAALYTGIYRANDFLERISNKIGSYTTTDKKLATLYIAEARALRGMFYFELVRRFGNVVLMTSTQMSNQNPATYVQSAPEKVYEYIEDDLLYACDILPYATDDQYRESNDYRFSKGAALGLLTKVYATWAGYPVKDESKWEAAAKTARILVESGKHGLLKDYEQLWKNTCNGTWDPTESLIEISFYSPTVSGNSDPVGRIGKWNGVKTTAIAGVRGSCAANVKVVHTFVLDWREDVSDIRRDLSIANYQYTDTKKSLWVAGASDTDESAAEKDADPTKAQKNKQNYTPAKWDIQKYVTTNSFINNDKSNVNWYFLRYADVLLLYAEALNEWKHGPDAEAYNAINAVRRRGYGNPSNTSACDLPQGLDETSFREAVRKERSYELSFEGHRRQDLIRWGIYYKTVQATAKELGYWWEGTGSPNYSVATYTEEGKHELFPIPQRDMDLCIQFNQNPKW
# How the values were obtained:
# Assay in all cases: glycan array binding signal (z-score within array); higher = stronger binding
# Details in all cases: glycan notation: IUPAC condensed, linker removed
# GlcNAc(b1-3)Gal(b1-4)Glc = target: GlcNAc(b1-3)Gal(b1-4)Glc
# Method in brief: (§1)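 Glycan array data came from 3228 arrays in the Consortium for Functional Glycomics database, and only arrays with an available protein sequence were kept. Glycan names were put into IUPAC-condensed notation, and columns mapping to the same glycan were averaged. The binding signal is a within-array Z-score, averaged across arrays of one protein sequence run at different concentrations or buffers and across linkers. A negative Z-score can be read as non-binding.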
# [1] = target: GlcNAc(b1-3)Gal(b1-4)GlcNAc
# Method in brief: as §1
# [2] = target: GlcNAc(b1-3)Gal(b1-4)GlcNAc(b1-2)Man(a1-3)[GlcNAc(b1-3)Gal(b1-4)GlcNAc(b1-2)Man(a1-6)]Man(b1-4)GlcNAc(b1-4)GlcNAc
# Method in brief: as §1
# [3] = target: GlcNAc(b1-3)Gal(b1-4)GlcNAc(b1-2)Man(a1-3)[GlcNAc(b1-3)Gal(b1-4)GlcNAc(b1-2)Man(a1-6)]Man(b1-4)GlcNAc(b1-4)[Fuc(a1-6)]GlcNAc
# Method in brief: as §1
# [4] = target: GlcNAc(b1-3)Gal(b1-4)GlcNAc(b1-2)[GlcNAc(b1-3)Gal(b1-4)GlcNAc(b1-6)]Man(a1-6)[GlcNAc(b1-3)Gal(b1-4)GlcNAc(b1-2)Man(a1-3)]Man(b1-4)GlcNAc(b1-4)GlcNAc
# Method in brief: as §1
# [5] = target: GlcNAc(b1-3)Gal(b1-4)GlcNAc(b1-3)Gal(b1-4)GlcNAc
# Method in brief: as §1
# [6] = target: GlcNAc(b1-3)Gal(b1-4)GlcNAc(b1-3)Gal(b1-4)GlcNAc(b1-2)Man(a1-3)[GlcNAc(b1-3)Gal(b1-4)GlcNAc(b1-3)Gal(b1-4)GlcNAc(b1-2)Man(a1-6)]Man(b1-4)GlcNAc(b1-4)GlcNAc
# Method in brief: as §1
# [7] = target: GlcNAc(b1-3)Gal(b1-4)GlcNAc(b1-3)Gal(b1-4)GlcNAc(b1-2)Man(a1-3)[GlcNAc(b1-3)Gal(b1-4)GlcNAc(b1-3)Gal(b1-4)GlcNAc(b1-2)Man(a1-6)]Man(b1-4)GlcNAc(b1-4)[Fuc(a1-6)]GlcNAc
# Method in brief: as §1
# [8] = target: GlcNAc(b1-3)Gal(b1-4)GlcNAc(b1-3)Gal(b1-4)GlcNAc(b1-2)[GlcNAc(b1-3)Gal(b1-4)GlcNAc(b1-3)Gal(b1-4)GlcNAc(b1-6)]Man(a1-6)[GlcNAc(b1-3)Gal(b1-4)GlcNAc(b1-3)Gal(b1-4)GlcNAc(b1-2)Man(a1-3)]Man(b1-4)GlcNAc(b1-4)[Fuc(a1-6)]GlcNAc
# Method in brief: as §1
# [9] = target: GlcNAc(b1-3)Gal(b1-4)GlcNAc(b1-3)Gal(b1-4)GlcNAc(b1-3)Gal(b1-4)GlcNAc(b1-2)Man(a1-3)[GlcNAc(b1-3)Gal(b1-4)GlcNAc(b1-3)Gal(b1-4)GlcNAc(b1-3)Gal(b1-4)GlcNAc(b1-2)Man(a1-6)]Man(b1-4)GlcNAc(b1-4)GlcNAc
# Method in brief: as §1
# [10] = target: GlcNAc(b1-3)Gal(b1-4)GlcNAc(b1-3)Gal(b1-4)GlcNAc(b1-3)Gal(b1-4)GlcNAc(b1-2)Man(a1-3)[GlcNAc(b1-3)Gal(b1-4)GlcNAc(b1-3)Gal(b1-4)GlcNAc(b1-3)Gal(b1-4)GlcNAc(b1-2)Man(a1-6)]Man(b1-4)GlcNAc(b1-4)[Fuc(a1-6)]GlcNAc
# Method in brief: as §1
# [11] = target: GlcNAc(b1-3)Gal(b1-4)GlcNAc(b1-3)Gal(b1-4)GlcNAc(b1-3)Gal(b1-4)GlcNAc(b1-2)[GlcNAc(b1-3)Gal(b1-4)GlcNAc(b1-3)Gal(b1-4)GlcNAc(b1-3)Gal(b1-4)GlcNAc(b1-6)]Man(a1-6)[GlcNAc(b1-3)Gal(b1-4)GlcNAc(b1-3)Gal(b1-4)GlcNAc(b1-3)Gal(b1-4)GlcNAc(b1-2)Man(a1-3)]Man(b1-4)GlcNAc(b1-4)[Fuc(a1-6)]GlcNAc
# Method in brief: as §1
# [12] = target: GlcNAc(b1-3)Gal(b1-4)GlcNAc(b1-3)Gal(b1-4)GlcNAc(b1-3)Gal(b1-4)GlcNAc(b1-3)Gal(b1-4)GlcNAc(b1-2)Man(a1-3)[GlcNAc(b1-3)Gal(b1-4)GlcNAc(b1-3)Gal(b1-4)GlcNAc(b1-3)Gal(b1-4)GlcNAc(b1-3)Gal(b1-4)GlcNAc(b1-2)Man(a1-6)]Man(b1-4)GlcNAc(b1-4)GlcNAc
# Method in brief: as §1
# [13] = target: GlcNAc(b1-3)Gal(b1-4)GlcNAc(b1-3)Gal(b1-4)GlcNAc(b1-3)Gal(b1-4)GlcNAc(b1-3)Gal(b1-4)GlcNAc(b1-2)Man(a1-3)[GlcNAc(b1-3)Gal(b1-4)GlcNAc(b1-3)Gal(b1-4)GlcNAc(b1-3)Gal(b1-4)GlcNAc(b1-3)Gal(b1-4)GlcNAc(b1-2)Man(a1-6)]Man(b1-4)GlcNAc(b1-4)[Fuc(a1-6)]GlcNAc
# Method in brief: as §1
# [14] = target: GlcNAc(b1-3)Gal(b1-4)GlcNAc(b1-3)Gal(b1-4)GlcNAc(b1-3)Gal(b1-4)GlcNAc(b1-3)Gal(b1-4)GlcNAc(b1-2)[GlcNAc(b1-3)Gal(b1-4)GlcNAc(b1-3)Gal(b1-4)GlcNAc(b1-3)Gal(b1-4)GlcNAc(b1-3)Gal(b1-4)GlcNAc(b1-6)]Man(a1-6)[GlcNAc(b1-3)Gal(b1-4)GlcNAc(b1-3)Gal(b1-4)GlcNAc(b1-3)Gal(b1-4)GlcNAc(b1-3)Gal(b1-4)GlcNAc(b1-2)Man(a1-3)]Man(b1-4)GlcNAc(b1-4)[Fuc(a1-6)]GlcNAc
# Method in brief: as §1
# [15] = target: GlcNAc(b1-3)Gal(b1-4)GlcNAc(b1-3)Gal(b1-4)GlcNAc(b1-3)GalNAc
# Method in brief: as §1
# [16] = target: GlcNAc(b1-3)Gal(b1-4)GlcNAc(b1-3)GalNAc
# Method in brief: as §1
# [17] = target: GlcNAc(b1-3)Gal(b1-4)GlcNAc(b1-3)[GlcNAc(b1-3)Gal(b1-4)GlcNAc(b1-3)]GalNAc
# Method in brief: as §1
# [18] = target: GlcNAc(b1-3)Gal(b1-4)GlcNAc(b1-6)[Gal(b1-3)]GalNAc
# Method in brief: as §1
# [19] = target: GlcNAc(b1-3)Gal(b1-4)GlcNAc(b1-6)[GlcNAc(b1-3)Gal(b1-3)]GalNAc
# Method in brief: as §1
# [20] = target: GlcNAc(b1-3)Gal(b1-4)GlcNAc(b1-6)[GlcNAc(b1-3)]Gal(b1-4)GlcNAc
# Method in brief: as §1
# GlcNAc(b1-3)GalNAc = target: GlcNAc(b1-3)GalNAc
# Method in brief: as §1
# GlcNAc(b1-3)Man = target: GlcNAc(b1-3)Man
# Method in brief: as §1
# [21] = target: GlcNAc(b1-3)[GlcNAc(b1-4)][GlcNAc(b1-6)]GlcNAc
# Method in brief: as §1
# [22] = target: GlcNAc(b1-3)[GlcNAc(b1-6)]Gal(b1-4)GlcNAc
# Method in brief: as §1
# [23] = target: GlcNAc(b1-3)[GlcNAc(b1-6)]GalNAc
# Method in brief: as §1
# [24] = target: GlcNAc(b1-4)Gal(b1-4)GlcNAc
# Method in brief: as §1
# GlcNAc(b1-4)GlcNAc = target: GlcNAc(b1-4)GlcNAc
# Method in brief: as §1
# [25] = target: GlcNAc(b1-4)GlcNAc(b1-4)GlcNAc
# Method in brief: as §1
# [26] = target: GlcNAc(b1-4)GlcNAc(b1-4)GlcNAc(b1-4)GlcNAc(b1-4)GlcNAc
# Method in brief: as §1
# [27] = target: GlcNAc(b1-4)GlcNAc(b1-4)GlcNAc(b1-4)GlcNAc(b1-4)GlcNAc(b1-4)GlcNAc
# Method in brief: as §1
# [28] = target: GlcNAc(b1-4)[GlcNAc(b1-6)]GalNAc
# Method in brief: as §1
# [29] = target: GlcNAc(b1-6)Gal(b1-4)GlcNAc
# Method in brief: as §1
# GlcNAc(b1-6)GalNAc = target: GlcNAc(b1-6)GalNAc
# Method in brief: as §1
# [30] = target: GlcNAc6S(b1-3)Gal(b1-4)GlcNAc
# Method in brief: as §1
# Kdn(a2-3)Gal(b1-3)GalNAc = target: Kdn(a2-3)Gal(b1-3)GalNAc
# Method in brief: as §1
# Kdn(a2-3)Gal(b1-3)GlcNAc = target: Kdn(a2-3)Gal(b1-3)GlcNAc
# Method in brief: as §1
# Kdn(a2-3)Gal(b1-4)Glc = target: Kdn(a2-3)Gal(b1-4)Glc
# Method in brief: as §1
# Kdn(a2-3)Gal(b1-4)GlcNAc = target: Kdn(a2-3)Gal(b1-4)GlcNAc
# Method in brief: as §1
# [31] = target: Kdn(a2-3)Gal(b1-4)[Fuc(a1-3)]GlcNAc
# Method in brief: as §1
# Kdn(a2-6)Gal(b1-4)GlcNAc = target: Kdn(a2-6)Gal(b1-4)GlcNAc
# Method in brief: as §1
# [32] = target: Man(a1-2)Man(a1-2)Man(a1-3)Man
# Method in brief: as §1
# [33] = target: Man(a1-2)Man(a1-2)Man(a1-6)[Man(a1-3)]Man
# Method in brief: as §1
# Man(a1-2)Man(a1-3)Man = target: Man(a1-2)Man(a1-3)Man
# Method in brief: as §1
# [34] = target: Man(a1-2)Man(a1-3)[Man(a1-2)Man(a1-6)]Man
# Method in brief: as §1
binder,measurement,setting,value
B1,glycan array binding signal (z-score),GlcNAc(b1-3)Gal(b1-4)Glc,-0.404
same,glycan array binding signal (z-score),[1],-0.443
same,glycan array binding signal (z-score),[2],-0.301
same,glycan array binding signal (z-score),[3],-0.359
same,glycan array binding signal (z-score),[4],0.487
same,glycan array binding signal (z-score),[5],-0.278
same,glycan array binding signal (z-score),[6],0.221
same,glycan array binding signal (z-score),[7],0.558
same,glycan array binding signal (z-score),[8],-0.231
same,glycan array binding signal (z-score),[9],-0.299
same,glycan array binding signal (z-score),[10],-0.105
same,glycan array binding signal (z-score),[11],-0.177
same,glycan array binding signal (z-score),[12],-0.352
same,glycan array binding signal (z-score),[13],-0.077
same,glycan array binding signal (z-score),[14],0.101
same,glycan array binding signal (z-score),[15],-0.557
same,glycan array binding signal (z-score),[16],-0.341
same,glycan array binding signal (z-score),[17],-0.364
same,glycan array binding signal (z-score),[18],-0.508
same,glycan array binding signal (z-score),[19],0.212
same,glycan array binding signal (z-score),[20],-0.404
same,glycan array binding signal (z-score),GlcNAc(b1-3)GalNAc,-0.172
same,glycan array binding signal (z-score),GlcNAc(b1-3)Man,-0.246
same,glycan array binding signal (z-score),[21],0.037
same,glycan array binding signal (z-score),[22],-0.13
same,glycan array binding signal (z-score),[23],-0.236
same,glycan array binding signal (z-score),[24],-0.555
same,glycan array binding signal (z-score),GlcNAc(b1-4)GlcNAc,-0.446
same,glycan array binding signal (z-score),[25],-0.33
same,glycan array binding signal (z-score),[26],-0.163
same,glycan array binding signal (z-score),[27],-0.027
same,glycan array binding signal (z-score),[28],-0.305
same,glycan array binding signal (z-score),[29],-0.133
same,glycan array binding signal (z-score),GlcNAc(b1-6)GalNAc,0.185
same,glycan array binding signal (z-score),[30],-0.178
same,glycan array binding signal (z-score),Kdn(a2-3)Gal(b1-3)GalNAc,-0.355
same,glycan array binding signal (z-score),Kdn(a2-3)Gal(b1-3)GlcNAc,-0.196
same,glycan array binding signal (z-score),Kdn(a2-3)Gal(b1-4)Glc,-0.397
same,glycan array binding signal (z-score),Kdn(a2-3)Gal(b1-4)GlcNAc,-0.36
same,glycan array binding signal (z-score),[31],-0.131
same,glycan array binding signal (z-score),Kdn(a2-6)Gal(b1-4)GlcNAc,-0.208
same,glycan array binding signal (z-score),[32],-0.559
same,glycan array binding signal (z-score),[33],0.068
same,glycan array binding signal (z-score),Man(a1-2)Man(a1-3)Man,-0.572
same,glycan array binding signal (z-score),[34],-0.089
